# The whole screen tested about 39,000 compounds, of which about 220 (0.56%) showed activity. Some of the results follow.
# Test system: Escherichia coli K-12 BW25113
# Assay: relative growth (OD600 normalised to plate interquartile mean) (fraction); higher = less growth inhibition, active = 0.2 or less
# Conditions: 50 µM; LB; incubation time: overnight (16-24 h)
# 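Further: static incubation at 37 °C against the wild-type strain, values averaged over two biological replicates.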
row,Structure (SMILES),relative growth
1,Cc1ccc(S(=O)(=O)N(C)C[C@H]2OCCCC[C@@H](C)Oc3ccc(NC(=O)NC4CCCCC4)cc3C(=O)N([C@@H](C)CO)C[C@H]2C)cc1,inactive: 1.01
2,Cc1noc(C)c1NC(=O)N(C)C[C@H]1OCCCC[C@H](C)Oc2ccc(NS(=O)(=O)c3ccc(Cl)cc3)cc2C(=O)N([C@@H](C)CO)C[C@H]1C,inactive: 0.979
3,COc1ccc(CN(C)C[C@H]2OCCCC[C@H](C)Oc3ccc(NC(=O)CCC(F)(F)F)cc3C(=O)N([C@H](C)CO)C[C@H]2C)cc1,inactive: 1.02
4,C[C@H]1CN([C@@H](C)CO)S(=O)(=O)c2ccc(C#CCN(C)C)cc2O[C@H]1CN(C)S(C)(=O)=O,inactive: 1.03
5,C[C@H]1CCCCO[C@H](CN(C)C(=O)Nc2ccc3c(c2)OCO3)[C@@H](C)CN([C@@H](C)CO)C(=O)c2cc(NC(=O)NC3CCCCC3)ccc2O1,inactive: 1.03
6,C[C@H](CO)N1C[C@H](C)[C@H](CN(C)C(=O)Nc2ccccc2C(F)(F)F)OCc2ccccc2-c2ccccc2C1=O,inactive: 0.987
7,O=C(O)c1ccc(O)c(C(=O)O)c1,inactive: 0.997
8,COc1ccc(S(=O)(=O)N(C)C[C@@H]2Oc3ccc(NC(=O)Cc4ccccc4)cc3C(=O)N([C@H](C)CO)C[C@H]2C)cc1,inactive: 0.987
9,COc1ccccc1S(=O)(=O)N[C@H]1C=C[C@H](CC(=O)N2CCOCC2)O[C@H]1CO,inactive: 0.998
10,O=C(C[C@@H]1CC[C@@H]2[C@H](COC[C@H](O)CN2S(=O)(=O)c2ccccc2)O1)NCCN1CCCC1,inactive: 0.982
11,C[C@@H]1CN([C@@H](C)CO)C(=O)c2cc(NS(=O)(=O)c3cn(C)cn3)ccc2O[C@H]1CN(C)Cc1ccncc1,inactive: 0.981
12,C[C@@H]1CCCCO[C@@H](CN(C)CC2CCCCC2)[C@H](C)CN([C@H](C)CO)C(=O)c2cc(NC(=O)c3ccccc3)ccc2O1,inactive: 0.99
13,COc1ccc(NC(=O)N(C)C[C@H]2Oc3c(NS(C)(=O)=O)cccc3C(=O)N([C@@H](C)CO)C[C@@H]2C)cc1,inactive: 0.981
14,C[C@@H](O)[C@@H](O)[C@H]1CNc2[nH]c(N)nc(=O)c2N1,inactive: 0.977
15,COc1ccc(NC(=O)Nc2cccc3c2O[C@H](CN(C)Cc2ccc(Cl)c(Cl)c2)[C@@H](C)CN([C@H](C)CO)C3=O)cc1,inactive: 1
16,COc1ccc(NC(=O)Nc2cccc3c2O[C@H](CN(C)Cc2ccc(-c4ccccc4)cc2)[C@@H](C)CN([C@@H](C)CO)C3=O)cc1,inactive: 1.03
17,CCC[C@@H](O)C#Cc1cnc2c(c1)C(=O)N([C@H](C)CO)C[C@H](C)[C@H](CN(C)S(=O)(=O)c1ccccc1)O2,inactive: 0.996
18,COc1ccccc1NC(=O)N(C)C[C@@H]1Oc2ncc(C#CC(C)C)cc2C(=O)N([C@@H](C)CO)C[C@@H]1C,inactive: 0.993
19,CC(C)N1C[C@H](C)[C@@H](CN(C)Cc2ccc(Oc3ccccc3)cc2)Oc2c(cccc2-c2cn(-c3ccncc3)nn2)C1=O,inactive: 1.02
20,C[C@@H]1CN([C@H](C)CO)C(=O)c2cc(N(C)C)ccc2O[C@@H](C)CCCCO[C@@H]1CN(C)CC1CCCCC1,inactive: 0.988

row,Structure (SMILES),relative growth
1,N#Cc1cc(F)cc(Oc2ccc(S(=O)(=O)C(F)F)c3c2CC(F)(F)[C@@H]3O)c1.N#Cc1cc(F)cc(Oc2ccc(S(=O)(=O)C(F)F)c3c2CC(F)(F)[C@H]3O)c1,inactive: 1
2,CO[C@@H]1CN(C)C(=O)c2ccc(NC(=O)c3cc(C)on3)cc2OC[C@@H](C)N(C(=O)C2CCC2)C[C@H]1C,inactive: 0.987
3,C[C@H](CO)N1C[C@H](C)[C@@H](CN(C)S(=O)(=O)c2cn(C)cn2)Oc2ccc(N(C)C)cc2CC1=O,inactive: 1.01
4,CC(C)N1C[C@@H](C)[C@H](CN(C)Cc2ccc(Oc3ccccc3)cc2)Oc2c(cccc2N(C)C(=O)c2ccncc2)C1=O,inactive: 1.01
5,COc1nc2ccc(Br)cc2cc1[C@@H](c1ccccc1)[C@@](O)(CCN(C)C)c1cccc2ccccc12,inactive: 1.01
6,C[C@@H]1CCCCO[C@@H](CN(C)S(=O)(=O)c2ccc(Cl)cc2)[C@@H](C)CN([C@@H](C)CO)C(=O)c2cc(NS(=O)(=O)c3ccc(F)cc3)ccc2O1,inactive: 1.02
7,C[C@@H]1CN([C@H](C)CO)C(=O)c2cccc(NC(=O)Nc3cccc4ccccc34)c2O[C@@H]1CN(C)Cc1ccc(C(F)(F)F)cc1,inactive: 1.03
8,CC(C)(O)C#Cc1ccc([C@H]2[C@H]3CN(S(C)(=O)=O)CCCCN3[C@H]2CO)cc1,inactive: 0.996
9,C[C@@H]1CN([C@@H](C)CO)C(=O)c2cc(NC(=O)Nc3ccccc3)ccc2O[C@@H](C)CCCCO[C@H]1CN(C)Cc1ccc2c(c1)OCO2,inactive: 0.987
10,COc1ccc(NC(=O)N(C)C[C@@H]2OCc3cnnn3CCCC(=O)N([C@@H](C)CO)C[C@@H]2C)c(OC)c1,inactive: 0.933
11,C[C@H]1CCCCO[C@H](CN(C)C(=O)c2ccccc2)[C@@H](C)CN([C@@H](C)CO)C(=O)c2cc(NC(=O)CCC(F)(F)F)ccc2O1,inactive: 1.01
12,C[C@H]1CN([C@@H](C)CO)C(=O)c2c(c3ccccc3n2C)-c2ccccc2CO[C@H]1CN(C)C(=O)Nc1cccc(F)c1,inactive: 1.01
13,CCCC(=O)Nc1ccc2c(c1)C(=O)N(C)C[C@@H](OC)[C@@H](C)CN(S(=O)(=O)c1cn(C)cn1)[C@H](C)CO2,inactive: 0.992
14,CN1C(=O)c2cc(NC(=O)C3CCCC3)ccc2OC[C@@H]2O[C@H](CC(=O)NCCc3ccncc3)CC[C@H]21,inactive: 1.02
15,C[C@@H]1CN([C@H](C)CO)C(=O)Cc2cc(NC(=O)Nc3cccc4ccccc34)ccc2O[C@@H]1CN(C)C(=O)Nc1ccc2c(c1)OCO2,inactive: 0.987
16,C[C@@H]1CN([C@@H](C)CO)C(=O)c2cc(NC(=O)CCCN(C)C)ccc2O[C@@H](C)CCCCO[C@@H]1CN(C)C,inactive: 0.991
17,C[C@@H]1CN([C@@H](C)CO)C(=O)c2cc(-c3cccc(C#N)c3)cnc2O[C@@H]1CN(C)C(=O)c1cnccn1,inactive: 0.997
18,Cc1[nH]c2ncnn2c(=O)c1CCC(=O)O,inactive: 1.01
19,C[C@@H]1CN([C@@H](C)CO)C(=O)Cc2cc(NS(C)(=O)=O)ccc2O[C@H]1CN(C)C(=O)Nc1ccc(F)cc1,inactive: 0.97
20,Cc1cc(O)c2c(c1)C(=O)c1c(c(O)cc(O)c1-c1c(O)cc(O)c3c1C(=O)c1cc(C)cc(O)c1C3=O)C2=O,inactive: 1.03

row,Structure (SMILES),relative growth
1,Cc1ccc(S(=O)(=O)Nc2ccc3c(c2)C(=O)N([C@H](C)CO)C[C@H](C)[C@H](CN(C)C(=O)Nc2ccc(C(F)(F)F)cc2)OCCCC[C@@H](C)O3)cc1,inactive: 0.998
2,c1csc([C@@H]2CNCCN2)c1,inactive: 0.992
3,C[C@@H]1CN([C@@H](C)CO)C(=O)Cc2cc(NC(=O)Cn3cnnn3)ccc2O[C@@H]1CN(C)S(=O)(=O)c1cccs1,inactive: 0.975
4,COc1ccc(NC(=O)N(C)C[C@@H]2Oc3ccc(NS(=O)(=O)c4cn(C)cn4)cc3C(=O)N([C@@H](C)CO)C[C@@H]2C)cc1,inactive: 0.97
5,C[C@@H]1CN([C@@H](C)CO)C(=O)c2cc(NC(=O)CCN3CCOCC3)ccc2O[C@@H]1CN(C)S(C)(=O)=O,inactive: 0.992
6,COc1ccc2c3c(n(c2c1)C)[C@H](CO)N(C[C@]13CCN(CC1)S(=O)(=O)c1cn(cn1)C)C(=O)Nc1ccc(cc1)F,inactive: 1.01
7,Cc1ccc2cc(-c3c(C)ccc(C(=O)c4c(-c5ccccc5)n(C)n(-c5ccccc5)c4=O)c3N)ccc2n1,inactive: 1.03
8,C[C@H](CO)N1C[C@H](C)[C@H](CN(C)S(=O)(=O)c2cn(C)cn2)Oc2ccc(NC(=O)Cc3ccccc3)cc2CC1=O,inactive: 0.981
9,COc1cc(C)c(C(=O)Oc2cc(C)c(C(=O)O)c(O)c2C)c(OC)c1C,inactive: 1.06
10,Cc1noc(C)c1NC(=O)Nc1ccc2c(c1)C(=O)N([C@@H](C)CO)C[C@@H](C)[C@H](CN(C)C(=O)c1ccccc1)OCCCC[C@H](C)O2,inactive: 0.986
11,COc1ccc(CN(C)C[C@H]2OCCCC[C@@H](C)Oc3ccc(NS(=O)(=O)c4c(C)noc4C)cc3C(=O)N([C@@H](C)CO)C[C@@H]2C)cc1,inactive: 1.03
12,CC1=NC[C@H](O)[C@@H](C(=O)O)N1,inactive: 1
13,CCCCCC(=O)OC1(C(C)=O)CCC2C3CCC4=CC(=O)CCC4(C)C3CCC21C (stereo not given),inactive: 1.07
14,C[C@@H]1CN([C@@H](C)CO)C(=O)c2cc(NC(=O)NC3CCCCC3)ccc2O[C@@H](C)CCCCO[C@H]1CN(C)C(=O)C1CCCCC1,inactive: 1.04
15,C[C@@H]1CN([C@@H](C)CO)C(=O)c2cc(/C=C/c3ccccc3)cnc2O[C@@H]1CN(C)C(=O)Nc1ccc(C(F)(F)F)cc1,inactive: 1.03
16,NCc1cccc(Cn2cccn2)c1,inactive: 0.964
17,CC(C)NNC(=O)c1ccncc1.O=P(O)(O)O,inactive: 1.01
18,CNC[C@H]1OCCCC[C@@H](C)Oc2ccc(NS(=O)(=O)c3c(C)noc3C)cc2C(=O)N([C@H](C)CO)C[C@@H]1C,inactive: 1.01
19,COc1ccc(S(=O)(=O)Nc2ccc3c(c2)C(=O)N([C@H](C)CO)C[C@@H](C)[C@@H](CN(C)Cc2ccc(C(=O)O)cc2)OCCCC[C@H](C)O3)cc1,inactive: 0.988
20,C[C@@H]1CN([C@H](C)CO)C(=O)c2cc(NC(=O)Nc3ccccc3)ccc2O[C@@H]1CN(C)Cc1ccc(C(F)(F)F)cc1,inactive: 0.876

# From the supplement of paper PMC9446081
